# Source: the BET-seq Pho4 binding data (Le et al. 2018)
# The list shows a part of the results. These are noisy estimates, calculated here from bound and input reads.
# Target: T1, Pho4 (S. cerevisiae) (UniProt P07270)
# T1 sequence: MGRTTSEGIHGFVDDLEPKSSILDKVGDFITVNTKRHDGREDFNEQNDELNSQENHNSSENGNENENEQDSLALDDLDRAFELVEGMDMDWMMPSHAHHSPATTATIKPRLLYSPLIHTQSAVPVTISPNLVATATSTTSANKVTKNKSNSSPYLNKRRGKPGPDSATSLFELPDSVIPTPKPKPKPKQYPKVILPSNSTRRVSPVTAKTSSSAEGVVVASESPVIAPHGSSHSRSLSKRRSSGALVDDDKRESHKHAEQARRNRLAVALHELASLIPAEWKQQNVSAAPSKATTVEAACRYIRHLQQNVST
# Test: relative binding free energy (BET-seq); higher = weaker binding
# Conditions: reference: library average
row,Sequence,relative binding free energy [kcal/mol]
1,TTCTGCACGTGTGGGG,0.06
2,TACGTCACGTGGATGT,-0.03
3,GTTCGCACGTGGGTGC,-0.19
4,ATGTACACGTGAGTGA,0.2
5,TTGATCACGTGGGGTA,0.01
6,GAGGACACGTGGAGTG,0.1
7,GGTGTCACGTGGATGG,0.14
8,GCGAGCACGTGAGTGT,0.1
9,GGGTACACGTGCAGGT,0.06
10,TGTCTCACGTGGGGCG,0.08
11,CAGTACACGTGTGGGG,0.05
12,GAAAGCACGTGAAGGG,0.24
13,AAAGTCACGTGTGGTT,0.17
14,GAAAGCACGTGGTGTT,-0.1
15,TTTGTCACGTGCGGCT,0.02
16,GAGGCCACGTGGAATG,0.23
17,ATTCTCACGTGGTGCT,0.16
18,TATTTCACGTGTTGTG,0.23
19,TTGCGCACGTGGCTTG,-0.21
20,TGCGGCACGTGAGGGA,0.14
21,ATAAGCACGTGGGCGT,-0.2
22,TATGCCACGTGGGTTT,-0.13
23,ATGCGCACGTGGAGGA,-0.19
24,AAGTCCACGTGGGGCT,-0.1
25,GGTCACACGTGCGGGG,-0.06
26,TTGAACACGTGTAGGT,0.15

row,Sequence,relative binding free energy [kcal/mol]
1,TATTACACGTGCGGGT,0.23
2,AGGTTCACGTGGTGTA,0.22
3,GAAGGCACGTGGGTGG,-0.14
4,GGGGGCACGTGATCGC,0.04
5,TTGGTCACGTGATCTA,0.22
6,AGTGACACGTGGATAG,-0.12
7,TGAAGCACGTGTCGTG,-0.13
8,AGCTTCACGTGATGAG,0.57
9,GGTCGCACGTGGGTTA,-0.09
10,GGCGTCACGTGATAGT,0.18
11,ATATGCACGTGTCTGT,-0.24
12,TGGTCCACGTGCGGAG,-0.08
13,AGTCGCACGTGGATAT,-0.01
14,TGATTCACGTGCGGCG,0.29
15,AGTTGCACGTGCGTGT,-0.07
16,ATGTACACGTGTAGTG,0.1
17,TATAACACGTGTTGGG,0
18,TTTAACACGTGGTAGG,-0.06
19,ATTCTCACGTGTAATT,0.53
20,GGTGCCACGTGGCAGT,-0.16
21,TGTAGCACGTGTGCAT,-0.1
22,TTTCTCACGTGGGGCT,0.17
23,AAGGGCACGTGACGAG,0.13
24,CGTGCCACGTGTTGGG,-0.1
25,TAAGCCACGTGTGGTT,0.01
26,AGGTGCACGTGAGAAG,0.14

row,Sequence,relative binding free energy [kcal/mol]
1,AAAGACACGTGGTGAG,-0.02
2,ACGCTCACGTGAGGGT,0.47
3,GTGCGCACGTGGTTGA,-0.14
4,TATGACACGTGGCGGT,-0.11
5,GGCTTCACGTGGTGAT,0.2
6,TGGTTCACGTGCGTAA,0.07
7,ATTCTCACGTGTTTTG,0.17
8,TGGGGCACGTGAGGTG,0.19
9,AAAATCACGTGGGTTT,0.09
10,TACAACACGTGGGTGG,-0.2
11,CATTGCACGTGATTGG,0.12
12,CATTGCACGTGAGTGG,0.26
13,GAGAACACGTGGGATT,0.15
14,GGGTTCACGTGCGGAG,0.22
15,ATTCACACGTGAGGTG,0.31
16,AATTTCACGTGTTACA,0.24
17,TCATGCACGTGGTAGT,-0.05
18,TTTGCCACGTGCTAGG,-0.1
19,TTGACCACGTGCGGTT,0.08
20,TGAGTCACGTGAAGCT,0.24
21,GTGTGCACGTGGGACG,-0.06
22,AGTGGCACGTGACTAT,0.02
23,GTTGTCACGTGCTAAT,0.22
24,TGAAACACGTGAGTAG,0.24
25,GATGTCACGTGTTGGC,0.22
26,GTTTGCACGTGTTAAC,0.21

row,Sequence,relative binding free energy [kcal/mol]
1,ACGGGCACGTGAGAGT,0.11
2,CGTGGCACGTGTCTTG,-0.25
3,AAAGGCACGTGACTGG,-0.06
4,CTGGTCACGTGGGTGG,0.01
5,TGCCACACGTGAGGGT,0.32
6,CGTAGCACGTGGTGCG,-0.21
7,TCGTGCACGTGGTAAG,-0.09
8,TGGGGCACGTGGGCCA,-0.31
9,GGGGCCACGTGTCAGT,0.02
10,GTGCGCACGTGTCGTG,-0.05
11,ATTTTCACGTGGTTCT,0.22
12,AGCTGCACGTGATGTG,0.06
13,GTGTTCACGTGGTGAA,0.25
14,GTTTGCACGTGTGGGT,0.21
15,TTACACACGTGTTAGT,0
16,GTCGTCACGTGGGGAC,-0.03
17,AGGTTCACGTGCAGAG,0.17
18,AGGAACACGTGGTGAT,0.1
19,GCAGGCACGTGGTTGT,-0.24
20,AGAGTCACGTGGGGCA,-0.01
21,AGTGTCACGTGCAGTT,0.03
22,AAGCGCACGTGGTTTA,-0.14
23,TTATACACGTGTATAT,0.12
24,TTGTACACGTGTTTTC,0
25,TTACTCACGTGGGGCT,-0.02
26,TATTTCACGTGGGTAG,0.1

row,Sequence,relative binding free energy [kcal/mol]
1,AATGACACGTGTTTAT,0.06
2,CGGTTCACGTGATATG,0.31
3,GTTAGCACGTGGAAAG,0.06
4,TAGGCCACGTGGGGAA,-0.1
5,CTGGGCACGTGTGGAT,0.04
6,TGGTTCACGTGATGTG,0.38
7,AATGTCACGTGATATG,0.21
8,GGGGGCACGTGGTTTC,-0.18
9,AAGTTCACGTGGACGT,0.33
10,TCGGGCACGTGCGTAA,-0.02
11,GGGAACACGTGGTTAT,0.07
12,CTGGGCACGTGATTTT,0.04
13,ATTTTCACGTGTCTTG,0.27
14,TCAGTCACGTGGCGGT,0.08
15,TGTTTCACGTGGCTTC,0.06
16,CGTGGCACGTGCCGGG,-0.18
17,ACATGCACGTGGGGTA,-0.15
18,CATGGCACGTGTTGTG,-0.12
19,TGAGTCACGTGAGCGG,0.14
20,CTTGGCACGTGTTATT,-0.11
21,GATAACACGTGGGTGT,-0.11
22,TGTGTCACGTGGGTAG,-0.12
23,TTACACACGTGGTAGG,0
24,GTGAACACGTGAGTGT,0.37
25,TTAGGCACGTGGTTGG,-0.14
26,GGTCTCACGTGTGGAA,0.39

row,Sequence,relative binding free energy [kcal/mol]
1,CCTTGCACGTGTGTGT,-0.06
2,TGCTACACGTGTAATG,0.09
3,CAGATCACGTGGGTGG,0.03
4,ATGTGCACGTGATTTT,-0.07
5,ATGCGCACGTGTATTG,-0.19
6,GTATTCACGTGGTTGC,0.24
7,AGTGCCACGTGAATTG,0.28
8,TAGCCCACGTGGGGTG,-0.3
9,GGTAACACGTGGTAAA,0.02
10,ATATACACGTGGTGCG,-0.2
11,GTGTGCACGTGCGGCT,-0.07
12,GGGGACACGTGGTCGT,0.02
13,GTTATCACGTGTTTTC,0.12
14,GTTTGCACGTGTTGAC,0.11
15,AGGTGCACGTGGATGT,0.05
16,GATTTCACGTGCGGTT,0.3
17,TTTATCACGTGTGGGG,0.28
18,GGGCACACGTGGGTTT,-0.12
19,TTTTTCACGTGGCGAG,0.21
20,CTCGGCACGTGTATGT,-0.01
21,AGGCTCACGTGTTAGG,0.37
22,ATGGCCACGTGTGGGC,0.11
23,GTATACACGTGGTTAG,-0.2
24,TTGTTCACGTGTATGC,0.34
25,TAGCGCACGTGGTGGA,-0.18
26,ATTTTCACGTGGGATA,0.19

row,Sequence,relative binding free energy [kcal/mol]
1,TGTAACACGTGATGAG,0.12
2,TATCGCACGTGGGGCA,-0.11
3,CGGGCCACGTGGGCTG,-0.28
4,GGGTTCACGTGGTAAG,0.39
5,GTCGGCACGTGATCGT,0.12
6,AGGATCACGTGGATGT,0.05
7,GTTCACACGTGGCGGG,0.03
8,CGTGGCACGTGGTCAG,-0.34
9,CTGAGCACGTGTTGGT,-0.14
10,AAGTTCACGTGAGATT,0.61
11,GTTCTCACGTGTTGGC,0.15
12,GTTGTCACGTGGTGAG,0.02
13,AAGGACACGTGATGGA,0.15
14,TTTTGCACGTGTTGGT,0.11
15,ATTGGCACGTGCATAG,-0.36
16,TGATTCACGTGGGCTG,0.11
17,GGGGTCACGTGTGGCT,0.21
18,AGATACACGTGGCGTG,-0.08
19,TTTGACACGTGGTGGT,-0.05
20,GTGGGCACGTGAAAGG,0.27
21,TAGTTCACGTGTCTTA,0.24
22,ATTTGCACGTGGTTGG,0.08
23,ATTACCACGTGTTGGG,0.08
24,TGTTGCACGTGTGATA,0.08
25,TTTGTCACGTGCGTGA,0.05
26,GCGTGCACGTGTTCGG,0.1

row,Sequence,relative binding free energy [kcal/mol]
1,ACTGGCACGTGGCGGG,-0.13
2,TATGCCACGTGGTGCG,-0.21
3,GTGTTCACGTGGTTAA,0.31
4,ACGGTCACGTGTTAGT,0.14
5,TGGGGCACGTGCCGGA,-0.14
6,GGGATCACGTGTGTAC,0.14
7,TGGTTCACGTGGAGCT,0.23
8,TTGTCCACGTGGGGGT,-0.21
9,TCTTACACGTGTGTGA,0.14
10,TTTGCCACGTGTGAGG,0.06
11,CTGATCACGTGCGTGG,0.01
12,CGGTGCACGTGCGGGG,-0.17
13,CGTGCCACGTGGTCGG,-0.22
14,GTATTCACGTGAATTT,0.38
15,TTCTTCACGTGAGATT,0.42
16,ATTGACACGTGGCCGG,-0.03
17,GGATGCACGTGTCTGG,-0.02
18,ACGTACACGTGGTGTT,0
19,CTTGACACGTGAGAGG,0.46
20,TTAGGCACGTGCGCGT,-0.2
21,GGATTCACGTGTAATT,0.34
22,GTTAACACGTGTGGCT,0.06
23,AAGTGCACGTGTCTTT,0.07
24,ATAAGCACGTGTGAGG,-0.07
25,ATTGGCACGTGGCGTG,-0.22
26,AGGGCCACGTGTATGT,-0.07

row,Sequence,relative binding free energy [kcal/mol]
1,TAAATCACGTGGTGTC,-0.04
2,TAAATCACGTGTGGAA,0.26
3,GTCTTCACGTGTTGTG,0.22
4,AGTGGCACGTGCAAGG,-0.07
5,TGCGACACGTGATTTT,0.13
6,GGGTTCACGTGATTAG,0.46
7,CGGGGCACGTGTATGT,-0.02
8,GGGTACACGTGGCTGG,0.09
9,AAAGACACGTGGGTTG,-0.17
10,AGGGACACGTGTGGTC,0.08
11,AGTATCACGTGTGGCA,0
12,ATACTCACGTGTTGGG,0.14
13,TAGCTCACGTGGTTAT,0.13
14,TAATTCACGTGGTATT,0.35
15,GTAAACACGTGGTTCT,0.03
16,TGTTGCACGTGCTAGT,-0.02
17,TAGAACACGTGTTGAT,0.1
18,TGCGCCACGTGTGTAG,-0.09
19,ACAATCACGTGTGGGG,0.12
20,CGCGGCACGTGGGAAG,0
21,GTTAACACGTGTTTAA,0.01
22,TAAATCACGTGCGGGT,0.15
